{
  "source": "PubChem BioAssay AID588855",
  "about": "(National Center for Advancing Translational Sciences (NCATS), 2011)",
  "note": "The whole screen tested about 410,000 compounds, of which about 5,000 (1.2%) were called active. Inconclusive results, whose numbers are uncertain, are shown with a selection of clear calls. Calls follow the shape of the dose curve; as a rule, active = well fitted inhibition curve with a large enough effect; inconclusive = small, poorly fitted or top-dose-only effect; inactive = no such curve, though single readings can be large or run the other way. A potency beside an inconclusive call is a rough fit, not a confirmed value. % is scaled to controls: 0 for no effect and ±100 for the full control effect; potency is read from the fitted curve at half-maximal effect; tags tell the direction and shape of the fitted curve.",
  "data": [
    {"test": "qHTS for Inhibitors of TGF-b; also: nearly all actives have a fitted effect of over 65% in size", "conditions": "HepG2 CAGA-GFP TGF-b/SMAD3 reporter, GFP fluorescence, 18 h, TGF-beta stimulated, 500 pg/mL final; series mostly up to 46.1 µM; activity, negative = inhibition: at the top concentration", "procedure,_shortened": "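Inhibition of TGF-beta-driven CAGA-GFP reporter expression in HEPG2 cells is measured by cellular GFP fluorescence after 18 h stimulation with 500 pg/mL recombinant TGF-beta in 1% FBS medium at 37 degrees C.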", "values": [
      {"compound": "Cc1ccc(C(=O)N2CCN(Cc3nc4sc5c(c4c(=O)[nH]3)CCCC5)CC2)cc1", "Potency": "inconclusive: 3.55 µM [inhibitor, single point]"},
      {"compound": "COc1cc(OC)nc(Oc2ccc(NC(C)=O)cc2)n1", "activity, negative = inhibition": "inactive: -6.5%"},
      {"compound": "c1ccc(-n2cnc3cc(NCc4ccccn4)ccc32)cc1", "Potency": "inconclusive: 28.2 µM [inhibitor, single point]"},
      {"compound": "Cc1nn(-c2ccc(N3CCCC3)nn2)c(C)c1CCC(=O)N1CCN(c2ccccc2)CC1", "Potency": "inconclusive: 0.708 µM [inhibitor, full curve, poor fit]"},
      {"compound": "O=C(N/N=C/c1cn(-c2cccs2)nc1-c1ccccc1)c1ccccc1Br", "activity, negative = inhibition": "inactive: -3.6%"},
      {"compound": "COc1ccc2cc(C(=O)N3CCN(Cc4ccc5c(c4)OCO5)CC3)[nH]c2c1", "Potency": "inconclusive: 11.2 µM [inhibitor, partial curve, poor fit]"},
      {"compound": "CCN(Cc1ccccc1)C(=O)c1nn(-c2ccc(OC)cc2)c(=O)c2c1c1ccccc1n2C", "Potency": "inactive"},
      {"compound": "O=C(CN(C(=O)CCC(=O)Nc1nccs1)c1ccc(F)c(Cl)c1)NCc1ccco1", "Potency": "inconclusive: 14.1 µM [inhibitor, single point]"},
      {"compound": "O=C(c1cccc(S(=O)(=O)N2CCOCC2)c1)N1CCCc2ccccc21", "activity, negative = inhibition": "inactive: -3.3%"},
      {"compound": "CCCCN(CC)Cc1ccc(CNC(=S)Nc2c(C)cc(C)cc2C)o1", "activity, negative = inhibition": "inactive: -4.22%"},
      {"compound": "C=CCN(C(=O)C1CSC2(C)CCC(=O)N12)c1nc(-c2ccccc2)cs1", "note": "(stereo unspecified)", "activity, negative = inhibition": "inactive: -4.47%"},
      {"compound": "CC1CCc2c(C(=O)Nc3ccc(OC(F)(F)F)cc3)csc2C1", "note": "(stereo unspecified)", "Potency": "inconclusive: 25.1 µM [inhibitor, single point]"},
      {"compound": "O=C(O)c1ccc2cccnc2c1O", "activity, negative = inhibition": "inactive: 9.36%"},
      {"compound": "O=[N+]([O-])c1ccc(NCCCNS(=O)(=O)c2ccc(Cl)cc2)c(Cl)c1", "activity, negative = inhibition": "inactive: -24.7%"},
      {"compound": "Cc1ccc(NC(=O)NC2CCCCCCC2)cc1C", "activity, negative = inhibition": "inactive: 1.89%"},
      {"compound": "O=C(N/N=C/c1ccc([N+](=O)[O-])o1)C1CCCC1", "Potency": "inconclusive: 35.5 µM [inhibitor, single point]"},
      {"compound": "COc1ccc(Br)cc1-c1noc(-c2ccccc2)n1", "Potency": "inconclusive: 35.5 µM [inhibitor, partial curve, poor fit]"},
      {"compound": "CCN(CCNC(=O)C1CCN(Cc2nc(-c3cccc(Cl)c3)oc2C)CC1)c1ccccc1", "Potency": "inconclusive: 22.4 µM [inhibitor, partial curve, poor fit]"},
      {"compound": "Clc1ccc(-c2nc3ccc(Cl)cn3c2Cc2ccsc2)cc1", "Potency": "inconclusive: 3.98 µM [inhibitor, full curve, poor fit]"},
      {"compound": "O=C(CSc1ncccc1-c1nc2ccccc2[nH]1)N1CCCCC1", "activity, negative = inhibition": "inactive: -0.997%"},
      {"compound": "CCSS(=O)(=O)c1cccc2cccnc12", "Potency": "inconclusive: 35.5 µM [inhibitor, single point]"}
    ]}
  ]
}
